Test results reported in article PMC4336329 (PLoS ONE, 2015).
About 2,200 (0.71%) of roughly 310,000 compounds showed an effect of 50% or more. Effects have a minus sign here. This is one part of the list.

target: human ether-à-go-go-related gene (hERG) potassium channel (human, UniProt Q12809); test: primary screen, population patch clamp on CHO cells stably expressing hERG
Sequence (Q12809 whole entry, looked up): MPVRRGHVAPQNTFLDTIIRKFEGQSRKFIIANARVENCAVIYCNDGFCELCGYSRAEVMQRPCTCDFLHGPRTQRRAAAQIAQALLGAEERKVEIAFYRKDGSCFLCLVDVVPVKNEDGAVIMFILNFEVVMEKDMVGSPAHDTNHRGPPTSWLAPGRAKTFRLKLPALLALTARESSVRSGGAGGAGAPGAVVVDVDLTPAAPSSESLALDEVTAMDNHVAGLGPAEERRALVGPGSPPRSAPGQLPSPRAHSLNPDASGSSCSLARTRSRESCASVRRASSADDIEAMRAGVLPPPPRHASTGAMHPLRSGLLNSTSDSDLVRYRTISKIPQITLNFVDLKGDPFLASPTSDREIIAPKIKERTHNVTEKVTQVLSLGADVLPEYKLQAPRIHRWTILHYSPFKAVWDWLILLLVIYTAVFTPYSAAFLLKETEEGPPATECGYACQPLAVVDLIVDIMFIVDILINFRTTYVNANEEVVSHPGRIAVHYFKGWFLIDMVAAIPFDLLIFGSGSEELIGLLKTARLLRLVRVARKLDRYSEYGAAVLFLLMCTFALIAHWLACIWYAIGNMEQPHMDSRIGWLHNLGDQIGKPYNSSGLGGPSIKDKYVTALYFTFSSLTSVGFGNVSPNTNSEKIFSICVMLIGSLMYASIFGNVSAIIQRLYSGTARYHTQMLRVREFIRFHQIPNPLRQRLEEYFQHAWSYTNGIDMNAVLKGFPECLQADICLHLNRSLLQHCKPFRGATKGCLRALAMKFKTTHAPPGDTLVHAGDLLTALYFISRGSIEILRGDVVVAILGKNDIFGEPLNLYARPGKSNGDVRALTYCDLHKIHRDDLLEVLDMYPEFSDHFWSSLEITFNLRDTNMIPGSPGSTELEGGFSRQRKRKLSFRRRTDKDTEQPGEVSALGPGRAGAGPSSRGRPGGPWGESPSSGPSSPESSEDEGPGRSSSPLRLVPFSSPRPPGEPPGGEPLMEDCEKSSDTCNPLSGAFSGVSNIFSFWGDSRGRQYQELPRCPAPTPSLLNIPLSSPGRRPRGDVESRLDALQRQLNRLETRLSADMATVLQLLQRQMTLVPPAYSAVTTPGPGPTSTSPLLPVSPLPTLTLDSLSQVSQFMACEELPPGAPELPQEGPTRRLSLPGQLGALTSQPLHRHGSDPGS

SMILES	hERG current change (%, negative = inhibition) at 1uM [%]
CCCn1c(SCC(=O)Nc2cc(Cl)ccc2OC)n[nH]c1=O	3.15
CCc1noc(C)c1C(=O)Nc1cc(C(F)(F)F)ccc1-n1cncn1	1.31
CC1(C)CC(=O)C2=C(C1)N1C(=C(C#N)C2c2ccccc2Cl)N=C(N)c2ccccc21 (centres unmarked)	-6.37
Fc1ccccc1N1CCN(CCCc2ccccc2)CC1	-18.4
COc1cc(-c2n[nH]c(=S)n2-c2ccc(Br)cc2)cc(OC)c1OC	6.8
Cc1cccc(OCC2=NS(=O)(=O)c3ccccc3N2)c1	-3.55
Cc1cccn2c(=O)c(C=O)c(N3CC(C)OC(C)C3)nc12 (centres unmarked)	15.5
Cc1cc(Cl)ccc1NC(=S)NCc1ccccc1	10.7
COc1cc2c(cc1OC)CN(Cc1ccc(F)cc1)CC2	3.91
S=C(NCCc1cccc(Cl)c1)NC1CCCCC1	21.9
O=C(O)C1(P(=O)(c2ccccc2)c2ccccc2)CCC1	1.7
COc1ccc(C(=O)NCc2ccc(Cl)cc2)cc1S(=O)(=O)N1CCCC1	7.16
COC(=O)C1=C[C@@H](C(=O)OC)[C@@H]2C3=C(C(=O)[C@@]2(C)NC(=O)c2ccccc2)[C@H](c2ccccc2)n2c(=O)n(-c4ccccc4)c(=O)n2[C@@H]3C1	16
CCOC(=O)c1cc2c(ccn2C)n1CC(=O)N(C)C	5.01
CCOC(=O)CN1CC23C=CC(O2)C(C(=O)NCc2ccc(F)cc2)C3C1=O (centres unmarked)	8.57
CC1CCCCN1CCNC(=O)Cn1nc(-c2ccccc2)ccc1=O (centres unmarked)	12.7
CC(C)(C)N1CC(c2nc3ccccc3n2Cc2ccccc2)CC1=O (centres unmarked)	0.803
O=C(CSc1nc2ccccc2c(=O)n1-c1ccc(F)cc1)Nc1ccc(N2CCOCC2)cc1	0.241
CC(C)c1nnc(NC(=O)Cn2nc(-c3ccc4c(c3)OCCO4)ccc2=O)s1	15.3
CCOc1ccc(-n2c(Cc3ccccc3)nnc2SCc2c(C)noc2C)cc1	-13.6
O=C(NC1CCCC1)C(c1ccc(F)cc1)N(Cc1ccc(Cl)cc1)C(=O)CCl (centres unmarked)	-0.346
CCN1CCN(S(=O)(=O)c2ccc(Cl)c(C(=O)Nc3ccccc3N3CCOCC3)c2)CC1	21.7
O=C(Cc1ccccc1)N1CCN(S(=O)(=O)c2ccc([N+](=O)[O-])cc2)CC1	-24.6

SMILES	hERG current change (%, negative = inhibition) at 1uM [%]
O=C1c2ccccc2NC(c2cccc([N+](=O)[O-])c2)N1CCc1ccccc1 (centres unmarked)	11.3
Cc1ccc(C2Nc3ccccc3NC3=C2C(=O)CC(C)(C)C3)c(O)c1 (centres unmarked)	5.6
CC(=O)n1c2ccccc2c2nc(NC(C)C)sc21	3.52
CC(C)CC(CC(C)C)=NNC(=O)c1ccc(CSc2nncn2C)cc1	5.68
Cc1ccc(C(=O)Oc2cc(N)n(S(=O)(=O)c3ccc(F)cc3)n2)cc1	16.5
CCOc1ccc(OCC)c(NC(=O)C2CCN(S(=O)(=O)c3cnc[nH]3)CC2)c1	-9.35
Cc1cc(N2CCN(S(=O)(=O)c3ccc(C)c(C)c3)CC2)c2ccccc2n1	-18.3
O=C(NN=C1c2ccccc2-c2ccccc21)c1ccccc1Br	4.88
Cc1cc(NC(=O)CN2CCN(S(=O)(=O)c3ccc(Cl)cc3)CC2)no1	0.547
CC(=O)N1c2ccc(S(=O)(=O)N3CCCC3)cc2CC1C(=O)NC(C)C (centres unmarked)	14
O=C1CCCC(O)=C1N=Nc1ccc(S(=O)(=O)N2CCOCC2)cc1	7.14
COc1ccc(-c2ccc(C#N)c(SCC(=O)NCc3ccco3)n2)cc1OC	10.5
CCc1ccc(OCC(=O)Nc2ccc(N3CCN(C(=O)c4ccccc4)CC3)cc2)cc1	5.37
O=C(Nc1nnc(-c2ccccc2F)s1)c1ccccc1F	9.06
CCN(CC)S(=O)(=O)c1ccc(OC)c(NC(=O)CC2CCCC2)c1	3.73
Cc1cc2cc(CNS(=O)(=O)N(C)C)ccc2[nH]1	10.6
Cc1cc(C)c(C)c(S(=O)(=O)N2CCC(C(=O)NCCCN3CCOCC3)CC2)c1C	11.8
Cc1ccc(C(=O)C(C)[n+]2cccc(C(N)=O)c2)cc1.[Br-] (centres unmarked)	4.11
CCc1cccc(NC(=O)CC2Oc3ccccc3NC2=O)c1 (centres unmarked)	14.3
COc1nc(-c2ccccc2)c2cc(C)ccc2n1	18.3
CCN(CC)c1ccc(/C=N/OCC(=O)Nc2cccc(C)c2)cc1	10.8
O=C(CN1CCN(CCN2C(=O)c3cccc4cccc(c34)C2=O)CC1)c1ccc(F)cc1	0.126
COc1ccc(CN2CCCC(CNC(=O)c3ccc(F)cc3)C2)c(F)c1 (centres unmarked)	-50.4

SMILES	hERG current change (%, negative = inhibition) at 1uM [%]
Cc1nc2nc(C)c(CCC(=O)O)c(C)n2n1	16.7
O=C1/C(=C/c2ccc(O)c(O)c2)Oc2cc(O)ccc21	9.11
Cn1c(=O)n(C)c2cc([N+](=O)[O-])c(N3CCN(S(=O)(=O)c4ccc5ccccc5c4)CC3)cc21	12.7
S=c1[nH]c2cc3ccccc3cc2[nH]1	8.7
Clc1ccccc1-c1ccc(/C=N/Nc2nncc(-c3ccccc3)n2)o1	1.05
Cc1ccc(C)c(S(=O)(=O)N2CCCOC2CNC(=O)C(=O)NCCCn2ccnc2)c1 (centres unmarked)	1.43
COCCn1c(=S)[nH]c2cc(C(=O)N3CCCC(C)C3)ccc2c1=O (centres unmarked)	15.7
O=C(Cc1cccs1)Nc1ccc(F)cc1	11.6
COC(=O)c1ccccc1NC(=O)c1ccc2c(c1)CC(C)O2 (centres unmarked)	0.443
COc1ccc(C(O)P(=O)(OC(C)C)OC(C)C)cc1 (centres unmarked)	13
Cc1nnc2sc(-c3ccc(NC(=O)CSc4ccc(Cl)cc4)cc3)nn12	3.52
Cl.O=C(CN1CCCC1)Nc1cccc(Cl)c1	5.1
O=C(Cn1c(=O)n(Cc2ccco2)c(=O)c2c3c(sc21)CCCC3)Nc1ccccc1	9.46
COc1ccc2oc(=O)c(-c3csc(Nc4ccc(O)cc4)n3)cc2c1	4.31
COC(=O)/C(C#N)=C/c1c(-c2ccccc2)nc2n1CCS2	7.49
Nc1nc(CN2CCOCC2)cs1	7.23
COc1ccc(-c2cnc3nc[nH]c(=O)c3n2)cc1	9.68
COc1ccc(-c2cc(C(F)(F)F)n3nc(C(=O)Nc4cc(C)on4)cc3n2)cc1OC	6.68
COc1ccc(C)cc1S(=O)(=O)N1CCN(S(=O)(=O)c2cc(C(=O)O)ccc2C)CC1	9.34
CCCC/C(C)=N/NC(=O)NC1CCCCC1	11.1
O=c1[nH][nH]c2ccccc2c1=O	14.8
Cc1ccc(/C=N/n2c(C)cc(C)c(C#N)c2=O)cc1	6.86
COCCn1c(/C=C/c2ccccc2)nc2ccccc21	-0.785

SMILES	hERG current change (%, negative = inhibition) at 1uM [%]
O=C(NCCCc1ccccc1)c1ccc(CS(=O)Cc2ccccc2Cl)o1 (centres unmarked)	-0.472
COc1ccc(CCn2c(O)c(C3=c4ccccc4=NC3=O)sc2=S)cc1OC	18.8
Cn1c(=O)n(C)c2cc(N3CCOCC3)c(NC(=O)c3ccc(F)cc3)cc21	11.3
Brc1ccc(-c2nnc3sc(CNC4CCCC4)cn23)cc1	9.48
CCN(CC)c1ccc(CC2C(=O)N(C)C(=O)N(C)C2=O)cc1	22.1
Clc1ccc(-c2nnc(-c3ccccc3)o2)cn1	8.12
CCOc1ccc(NS(=O)(=O)c2ccc3c(c2)CCN3C(C)=O)cc1	5.99
Cc1ccccc1C(=O)OC1CCN(C)CC1.Cl	13
CCC(Sc1ncccc1C(=O)O)C(=O)N1CCCC1 (centres unmarked)	4.61
COC(=O)Cc1ccc(NC(=S)N2CCN(CCO)CC2)cc1	10.9
C/C(=N\Nc1ccc(C(F)(F)F)cc1[N+](=O)[O-])C(C)C	18.6
CCCN1C(=O)c2ccccc2NC1c1ccc(O)c(OCC)c1 (centres unmarked)	16.9
COc1ccc2c(c1)CC/C(=C\C=C\c1ccccc1)C2=O	11.7
O=C(Sc1cccc2cccnc12)c1ccccc1Br	9.17
CCOC(=O)c1ccc(NC(=O)c2ccnn2C)cc1	14.5
Cn1nc(C(=O)Nc2nc3ccc(S(C)(=O)=O)cc3s2)ccc1=O	-0.35
CCn1c(SCC(=O)Nc2ccc(C)cc2)nnc1-c1ccccn1	-21.5
CC(=O)c1cnc2c(-c3ccccc3)c(-c3ccccc3)nn2c1C	11.5
Cc1cc(Cl)ccc1NC(=S)NCc1ccc(F)cc1	12
C[C@H]1COc2c(N3CCN(C)CC3)c(F)cc3c(=O)c(C(=O)O)cn1c23	16.8
